From the supplement of paper PMC12217912
Some of the results follow. The full chains were built here from the parent and the listed change. Values near 0.05 are background.

B1: TEV protease; numbered along this chain (parent)
chain: MGESLFKGPRDYNPISSSICHLTNESDGHTTSLYGIGFGPFIITNKHLFRRNNGTLVVQSLHGVFKVKDTTTLQQHLVDGRDMIIIRMPKDFPPFPQKLKFREPQREERICLVTTNFQTKSMSSMVSDTSCTFPSGDGIFWKHWIQTKDGQCGSPLVSTRDGFIVGIHSASNFTNTNNYFTSVPKNFMELLTNQEAQQWVSGWRLNADSVLWGGHKVFMVKPEEPFQPVKEATQL

Variants of: B1
Assay: raw area under fraction-flipped curve 0-4 h after induction (AUC4h, not background-subtracted), DNA-recorder readout of cleavage of the substrate (dimensionless); higher = more cleavage of the substrate by the protease variant
Details: temperature: 34 °C; time window: 0-4 h after rhamnose induction
Experimental: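 In vivo DNA recorder in E. coli TOP10(DE3) ΔrhaA at 34 °C. Each TEVp single-site mutant (parent TEVp 0) is paired with a single-site variant of the 7-mer TEVs (canonical ENLYFQ|S). The substrate sits between flexible linkers in a Bxb1-sfGFP-TEVs-SsrA fusion, so cleavage stabilises Bxb1 and speeds flipping of a recombination array, read by NGS. The value is the raw area under the fraction-flipped curve over 0-4 h after rhamnose induction (AUC4h), with ≥20 reads per time point. It is not background-subtracted; inactive controls average about 0.047.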
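Note: Bxb1 expression induced with 0.2% (w/v) L-rhamnose at OD600 near 0.5, cultures sampled hourly, flipped fraction per protease–substrate barcode pair counted by paired-end Illumina sequencing.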

| Variant | area with substrate ANLYFQS | area with substrate CNLYFQS | area with substrate FNLYFQS | area with substrate GNLYFQS | area with substrate INLYFQS | area with substrate KNLYFQS | area with substrate LNLYFQS | area with substrate MNLYFQS | area with substrate NNLYFQS | area with substrate SNLYFQS | area with substrate VNLYFQS | area with substrate YNLYFQS | area with substrate HNLYFQS | area with substrate TNLYFQS | area with substrate WNLYFQS | area with substrate PNLYFQS | area with substrate QNLYFQS | area with substrate RNLYFQS | area with substrate DNLYFQS |
| --- | --- | --- | --- | --- | --- | --- | --- | --- | --- | --- | --- | --- | --- | --- | --- | --- | --- | --- | --- |
| MGESLFKGPRDYNPISSSICHLTNESDGHTTSLYGIGFGPFIITNKHLFRRNNGTLVVQSLHGVFKVKDTTTLQQHLVDGRDMIIIRMPKDFPPFPQKLKFREPQREERICLVTTNFQTKSMSSMVSDTSCTFPSGDGIFWKHWIQTKDGQCGSPLVSTRDGFIVGIHSASNFTNTNNYFTSEPKNFMELLTNQEAQQWVSGWRLNADSVLWGGHKVFMVKPEEPFQPVKEATQL [V183E] | 0.0385 | 0.0493 | 0.047 | 0.0501 | 0.0408 | 0.0484 | 0.0455 | 0.0498 | 0.0426 | 0.0507 | 0.0577 | 0.0464 | – | – | – | – | – | – | – |
| MGESLFKGPRDYNPISSSICHLTNESDGHTTSLYGIGFGPFIITNKHLFRRNNGTLVVQSLHGVFKVKDTTTLQQHLVDGRDMIIIRMPKDFPPFPQKLKFREPQREERICLVTTNFQTKSMSSMVSDTSCTFPSGDGIFWKHWIQTKDGQCGSPLVSTRDGFIVGIHSASNFTNTNNYFTSFPKNFMELLTNQEAQQWVSGWRLNADSVLWGGHKVFMVKPEEPFQPVKEATQL [V183F] | 0.0809 | 0.0768 | 0.0598 | 0.0029 | 0.0961 | – | 0.0607 | 0.0592 | – | 0.055 | 0.0524 | – | 0.0603 | 0.0483 | 0.052 | – | – | – | – |
| MGESLFKGPRDYNPISSSICHLTNESDGHTTSLYGIGFGPFIITNKHLFRRNNGTLVVQSLHGVFKVKDTTTLQQHLVDGRDMIIIRMPKDFPPFPQKLKFREPQREERICLVTTNFQTKSMSSMVSDTSCTFPSGDGIFWKHWIQTKDGQCGSPLVSTRDGFIVGIHSASNFTNTNNYFTSYPKNFMELLTNQEAQQWVSGWRLNADSVLWGGHKVFMVKPEEPFQPVKEATQL [V183Y] | 0.0556 | 0.0693 | 0.0519 | – | 0.0731 | 0.0696 | 0.0619 | 0.0554 | 0.0627 | – | – | – | 0.0592 | 0.0552 | 0.0278 | 0.0581 | 0.0736 | – | – |
| MGESLFKGPRDYNPISSSICHLTNESDGHTTSLYGIGFGPFIITNKHLFRRNNGTLVVQSLHGVFKVKDTTTLQQHLVDGRDMIIIRMPKDFPPFPQKLKFREPQREERICLVTTNFQTKSMSSMVSDTSCTFPSGDGIFWKHWIQTKDGQCGSPLVSTRDGFIVGIHSASNFTNTNNYFTSVPENFMELLTNQEAQQWVSGWRLNADSVLWGGHKVFMVKPEEPFQPVKEATQL [K185E] | 0.0744 | 0.0816 | – | 0.0664 | – | – | 0.0435 | – | – | 0.0562 | – | 0.0681 | 0.0612 | 0.0586 | 0.0744 | – | 0.0802 | – | – |
| MGESLFKGPRDYNPISSSICHLTNESDGHTTSLYGIGFGPFIITNKHLFRRNNGTLVVQSLHGVFKVKDTTTLQQHLVDGRDMIIIRMPKDFPPFPQKLKFREPQREERICLVTTNFQTKSMSSMVSDTSCTFPSGDGIFWKHWIQTKDGQCGSPLVSTRDGFIVGIHSASNFTNTNNYFTSVPFNFMELLTNQEAQQWVSGWRLNADSVLWGGHKVFMVKPEEPFQPVKEATQL [K185F] | 0.0912 | 0.0669 | 0.0744 | 0.0383 | 0.0737 | 0.068 | – | 0.0872 | 0.0704 | 0.0741 | – | 0.0457 | 0.0633 | – | 0.0661 | 0.0665 | 0.0821 | 0.062 | – |
| MGESLFKGPRDYNPISSSICHLTNESDGHTTSLYGIGFGPFIITNKHLFRRNNGTLVVQSLHGVFKVKDTTTLQQHLVDGRDMIIIRMPKDFPPFPQKLKFREPQREERICLVTTNFQTKSMSSMVSDTSCTFPSGDGIFWKHWIQTKDGQCGSPLVSTRDGFIVGIHSASNFTNTNNYFTSVPINFMELLTNQEAQQWVSGWRLNADSVLWGGHKVFMVKPEEPFQPVKEATQL [K185I] | 0.071 | 0.0491 | – | 0.0955 | 0.075 | 0.057 | 0.06 | 0.0605 | 0.0758 | 0.0599 | 0.061 | – | 0.0571 | 0.0699 | 0.0601 | – | – | 0.0651 | – |
| MGESLFKGPRDYNPISSSICHLTNESDGHTTSLYGIGFGPFIITNKHLFRRNNGTLVVQSLHGVFKVKDTTTLQQHLVDGRDMIIIRMPKDFPPFPQKLKFREPQREERICLVTTNFQTKSMSSMVSDTSCTFPSGDGIFWKHWIQTKDGQCGSPLVSTRDGFIVGIHSASNFTNTNNYFTSVPKEFMELLTNQEAQQWVSGWRLNADSVLWGGHKVFMVKPEEPFQPVKEATQL [N186E] | 0.0519 | 0.0605 | – | – | – | – | – | – | 0.0783 | – | 0.0426 | – | 0.0634 | 0.0583 | 0.0796 | – | 0.082 | – | – |
| MGESLFKGPRDYNPISSSICHLTNESDGHTTSLYGIGFGPFIITNKHLFRRNNGTLVVQSLHGVFKVKDTTTLQQHLVDGRDMIIIRMPKDFPPFPQKLKFREPQREERICLVTTNFQTKSMSSMVSDTSCTFPSGDGIFWKHWIQTKDGQCGSPLVSTRDGFIVGIHSASNFTNTNNYFTSVPKWFMELLTNQEAQQWVSGWRLNADSVLWGGHKVFMVKPEEPFQPVKEATQL [N186W] | 0.0741 | 0.0621 | – | 0.0454 | – | – | 0.0642 | 0.0663 | 0.0372 | 0.0992 | – | – | 0.0709 | 0.059 | 0.0391 | 0.0597 | – | – | – |
| MGESLFKGPRDYNPISSSICHLTNESDGHTTSLYGIGFGPFIITNKHLFRRNNGTLVVQSLHGVFKVKDTTTLQQHLVDGRDMIIIRMPKDFPPFPQKLKFREPQREERICLVTTNFQTKSMSSMVSDTSCTFPSGDGIFWKHWIQTKDGQCGSPLVSTRDGFIVGIHSASNFTNTNNYFTSVPKNCMELLTNQEAQQWVSGWRLNADSVLWGGHKVFMVKPEEPFQPVKEATQL [F187C] | 0.0941 | 0.074 | 0.0574 | 0.0586 | – | – | – | – | – | – | – | 0.0794 | 0.0572 | 0.0781 | 0.0287 | – | – | – | – |
| MGESLFKGPRDYNPISSSICHLTNESDGHTTSLYGIGFGPFIITNKHLFRRNNGTLVVQSLHGVFKVKDTTTLQQHLVDGRDMIIIRMPKDFPPFPQKLKFREPQREERICLVTTNFQTKSMSSMVSDTSCTFPSGDGIFWKHWIQTKDGQCGSPLVSTRDGFIVGIHSASNFTNTNNYFTSVPKNHMELLTNQEAQQWVSGWRLNADSVLWGGHKVFMVKPEEPFQPVKEATQL [F187H] | 0.0227 | – | – | 0.074 | 0.0381 | 0.064 | 0.0479 | 0.0567 | 0.0499 | 0.0608 | 0.0596 | 0.0463 | 0.0471 | 0.0666 | 0.0507 | 0.06 | 0.0659 | – | 0.0517 |
